# Source: the supplement of paper PMC3334620
# Over roughly 33,000 sequences, “E-score (-0.5 to 0.5)” has its median near -0.011; the highest 2% begin near 0.28. Some of the results follow.
# Molecular target: T1, Gcr1 (UniProt P07261)
# T1 sequence: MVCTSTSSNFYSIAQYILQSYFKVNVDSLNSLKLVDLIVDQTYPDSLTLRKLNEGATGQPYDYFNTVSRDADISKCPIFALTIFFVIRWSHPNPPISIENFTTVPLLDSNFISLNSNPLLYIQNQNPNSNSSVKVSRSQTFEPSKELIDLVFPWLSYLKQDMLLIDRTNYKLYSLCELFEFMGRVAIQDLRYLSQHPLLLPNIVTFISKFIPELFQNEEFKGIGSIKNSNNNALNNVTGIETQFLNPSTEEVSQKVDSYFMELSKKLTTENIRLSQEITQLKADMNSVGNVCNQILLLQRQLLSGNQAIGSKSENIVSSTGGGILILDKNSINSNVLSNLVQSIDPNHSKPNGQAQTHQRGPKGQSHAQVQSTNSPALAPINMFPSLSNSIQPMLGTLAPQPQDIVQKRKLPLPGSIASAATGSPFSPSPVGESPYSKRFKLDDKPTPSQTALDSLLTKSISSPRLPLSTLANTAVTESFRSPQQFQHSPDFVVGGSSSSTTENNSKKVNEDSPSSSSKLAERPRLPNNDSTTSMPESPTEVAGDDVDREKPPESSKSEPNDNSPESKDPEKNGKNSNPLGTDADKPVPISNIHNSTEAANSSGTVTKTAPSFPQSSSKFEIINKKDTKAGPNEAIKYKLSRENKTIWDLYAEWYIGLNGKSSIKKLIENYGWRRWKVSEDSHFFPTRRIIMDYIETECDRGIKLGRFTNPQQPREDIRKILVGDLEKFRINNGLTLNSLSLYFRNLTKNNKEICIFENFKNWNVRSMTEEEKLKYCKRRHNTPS
# Experiment: PBM E-score (8-mer binding enrichment) (E-score (-0.5 to 0.5)); higher = stronger / more preferred TF binding; most listed sequences are background and not binding sites
# Settings: protein concentration: 100 nM; construct: GST-full length
# Description: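 Universal 'all 10-mer' protein binding microarrays (Agilent AMADID 015681) probed with GST-tagged S. cerevisiae TFs (full-length or DBD) made by in vitro transcription/translation (PURExpress), about 100-200 nM. Bound TF was detected with fluorescent anti-GST. Each ungapped 8-mer (which stands for itself and its reverse complement) is scored by the PBM enrichment score (E-score), a modified Wilcoxon-Mann-Whitney statistic from -0.5 to +0.5, computed with the Universal PBM Analysis Suite. Scale: above 0.35 generally sequence-specific binding.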
row,Sequence,PBM E-score
1,CCTAGGGA,-0.0617
2,CGGCCGAG,-0.104
3,CCCCAAGC,-0.00278
4,ACAACGCC,-0.00671
5,TCAATAGA,0.144
6,GAGAATGC,-0.106
7,AACCGAGC,-0.358
8,ATGGCCTC,-0.0894
9,AGTGCAAG,-0.113
10,AGCGAGTC,-0.209
11,CATAGTAA,0.00706
12,CCTTTGAA,0.0237
13,CGTGATTC,-0.0403
14,ACGGGGGC,-0.08
15,TCGCCACA,-0.0277
16,AAGGTACT,0.0417
17,ACTATCAC,-0.13
18,GGGGCCGA,-0.155
19,CTGTGGCA,0.0358
20,TAGATCCA,0.0352
21,GATCCTAC,0.0756
22,CAAAGTGC,-0.159

row,Sequence,PBM E-score
1,CGCCACAA,0.203
2,ACTCCCCT,-0.0338
3,ATCGCGAT,0.183
4,TGGTGACA,0.147
5,CCAGACAG,-0.0751
6,AGGTGTAA,-0.0741
7,ATCTCTGG,0.0288
8,CGCTGGTC,-0.0913
9,CATATATC,-0.0267
10,AAGTACCC,-0.0247
11,CCAACAGC,0.0791
12,GAGGCGGA,-0.147
13,ATCTGGCG,-0.0107
14,CCTGTTAG,0.174
15,ACTCGTAA,0.059
16,CGTGAATA,-0.161
17,GACCTTAC,-0.165
18,AAGATCTA,-0.0752
19,AACGTCCA,0.042
20,TCCGCAAA,0.241
21,GCGGCTGA,0.0417
22,CGGATTAG,-0.0873

row,Sequence,PBM E-score
1,ATCGGACA,0.0211
2,ACCCCAAG,0.03
3,CGGAAGCA,0.0914
4,ATTGGCGG,-0.031
5,CCCTATAC,0.00175
6,CCCGGTGC,0.0817
7,ATGGAGCG,-0.116
8,ATCTAACA,0.148
9,CCAACGGC,0.0087
10,AAAAAATG,0.268
11,GTTATAGA,-0.167
12,CGGCGGTA,-0.0985
13,GGGAAGGA,-0.281
14,TAGTGAGA,-0.168
15,AACTCACG,-0.0239
16,GGAGTCCC,0.286
17,AGTGGTCG,0.16
18,CCTATACG,0.0254
19,TAGTTCAA,0.102
20,CTGGGCAA,-0.0301
21,ACTGGTAG,0.226
22,CAATTTAA,0.176

row,Sequence,PBM E-score
1,CACTTATC,0.0228
2,CCACGTCC,-0.267
3,ATATTCAC,-0.0894
4,GGCGTACA,-0.231
5,ACGACTTC,0.135
6,GAGGCACC,0.081
7,ACCTGTTG,0.00119
8,CGGTTCTC,0.0309
9,CCGCTACG,-0.014
10,TAATGACA,-0.117
11,ACATCCGA,-0.104
12,ACACAATG,0.00225
13,AAGACGCG,0.278
14,CAAGGGGC,-0.0593
15,AGCAAACT,0.0882
16,ACGGACAA,-0.24
17,AGTAACTG,-0.0397
18,CGATCGCG,-0.187
19,CGTGTTGC,0.12
20,CAGCCTCA,-0.0293
21,ACTTTTTC,0.0256
22,AAAATAGC,0.272

row,Sequence,PBM E-score
1,AATCTCAA,0.122
2,ACTTAGCA,-0.0589
3,CCACCTCA,-0.115
4,GGTGTTAC,-0.21
5,AACACGAC,0.0243
6,GCACTCGC,-0.029
7,AAGTGACA,-0.212
8,GCAGCGGA,0.0692
9,ATGCTGGA,0.0516
10,AGACAAAA,-0.0639
11,CACCGCAA,-0.00555
12,GCTCCTCC,-0.147
13,GCTAGCAC,-0.0767
14,TACCCATA,0.0882
15,ACAATCGG,0.104
16,GCATTGAC,-0.0897
17,CACAGGAA,0.118
18,CATCCATA,0.186
19,GGGTGTGA,-0.142
20,CCTCCGCA,-0.0531
21,CCGATAGC,-0.126
